# Experimental data reported in the supplement of paper PMC4166925.
# ± gives the standard deviation of the averaged measurements. Whole data set: some 33,000 sequences, median “E-score (dimensionless, -0.5 to 0.5)” near -0.046, cut for the highest 2% near 0.36. This is one part of the list.
# Test system: T1, SpTbr T-box DNA-binding domain (GST fusion)
# T1 sequence: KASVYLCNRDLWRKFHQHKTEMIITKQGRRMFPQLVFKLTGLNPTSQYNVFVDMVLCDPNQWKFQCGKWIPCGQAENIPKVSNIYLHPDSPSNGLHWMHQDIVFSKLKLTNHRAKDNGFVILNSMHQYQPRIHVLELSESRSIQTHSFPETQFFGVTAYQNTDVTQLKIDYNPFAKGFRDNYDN
# Assay: PBM E-score of 8-mer (E-score (dimensionless, -0.5 to 0.5)); Tbr is Tbrain of the sea star Patiria miniata (Pm) or the sea urchin Strongylocentrotus purpuratus (Sp); higher = stronger binding preference; most listed sequences are background and not binding sites
# Conditions: the construct has about 5 more residues each side
# Method in brief: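 Each ungapped 8-mer received an enrichment E-score from the Universal PBM Analysis Suite, averaged over duplicate arrays. The proteins were Tbr T-box DNA-binding domains, covering the whole T-box plus about five flanking residues, fused to GST and expressed in BL21 E. coli at 20 °C before glutathione affinity purification. Universal Agilent oligonucleotide arrays were made double-stranded by primer extension and incubated with 200 nM protein in PBS (pH 7.5). The arrays were then scanned and quantified, and every 8-mer was scored from probe intensities.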
row,Sequence,PBM E-score of 8-mer
1,TAAACTCA,-0.2 ± 0.037
2,CGAGTCAA,0.00811 ± 0.012
3,ATGCATGA,-0.0376 ± 0.033
4,CTAGACTC,-0.183 ± 0.025
5,AAGCCTAA,-0.216 ± 0.033
6,ATACCGTC,-0.0857 ± 0.022
7,AAGTCTCC,-0.00387 ± 0.021
8,CATGAGCA,-0.049 ± 0.047
9,CAATTGTG,0.225 ± 0.058
10,CTTCATTA,-0.242 ± 0.0057
11,AGCTGACG,0.142 ± 0.026
12,GGACCAAC,-0.109 ± 0.068
13,CGACATGA,-0.0342 ± 0.055
14,TAGCTTCA,0.056 ± 0.085
15,CTACTTCC,-0.196 ± 0.069
16,TAGTGATA,0.161 ± 0.081
17,CGAGGTAC,-0.11 ± 0.026
18,AAATGGGC,0.056 ± 0.085
19,ATATTCTA,-0.0979 ± 0.079
20,CATATGTA,-0.129 ± 0.043
21,GACGTAGC,-0.196 ± 0.044
22,ACGCTACG,0.102 ± 0.023
23,CTGTCCTC,0.0372 ± 0.031
24,GTCAGGTA,0.044 ± 0.027
25,ATAGAGCA,-0.208 ± 0.036

row,Sequence,PBM E-score of 8-mer
1,CGTAAACA,0.277 ± 0.025
2,GTATGTGA,0.256 ± 0.014
3,TCCCTTCA,0.0958 ± 0.018
4,ACACCCAG,0.352 ± 0.017
5,AATAAGGG,-0.1817 ± 0.001
6,CTATCCAA,-0.383 ± 0.079
7,AACATCGG,-0.0763 ± 0.15
8,CACATCGG,0.279 ± 0.04
9,GGCACCTA,0.382 ± 0.015
10,AGCATCTA,-0.0669 ± 0.073
11,AGAGAATA,-0.0768 ± 0.025
12,AAACATTG,0.0255 ± 0.053
13,AGTAATTC,-0.219 ± 0.038
14,AGTCGAGC,0.107 ± 0.0035
15,TGTATACA,-0.236 ± 0.0082
16,GTGCATTA,-0.0123 ± 0.027
17,GCAGCCTA,0.1169 ± 0.001
18,ATTTAAGC,-0.224 ± 0.025
19,CGAATCCA,-0.0462 ± 0.039
20,ACTTTGAC,0.134 ± 0.01
21,ATGAAGCA,-0.0756 ± 0.084
22,GATTCCTA,-0.137 ± 0.034
23,ACTAGAAA,-0.163 ± 0.008
24,AACCCAAC,0.0211 ± 0.0073
25,TAGTCCCA,-0.131 ± 0.037

row,Sequence,PBM E-score of 8-mer
1,AGCGCATG,-0.0989 ± 0.12
2,CATTAGCG,0.121 ± 0.061
3,AGCAGAAA,-0.0706 ± 0.043
4,ATGCTCAG,-0.0846 ± 0.04
5,AGAGATGA,0.0707 ± 0.07
6,CTCAATAC,-0.182 ± 0.029
7,GTTCATGA,-0.0117 ± 0.028
8,GGTCAACA,0.114 ± 0.02
9,CATTTTGC,0.0345 ± 0.041
10,CATCAACC,-0.252 ± 0.051
11,AACCAGCG,-0.0824 ± 0.039
12,AGGGATAC,-0.232 ± 0.028
13,GTTGCTGA,0.138 ± 0.024
14,CCTTTTCC,-0.0561 ± 0.086
15,ACAAACAC,0.203 ± 0.03
16,GGAGATGA,-0.127 ± 0.02
17,AAACGAAC,0.011 ± 0.054
18,CGCTACCA,0.271 ± 0.0082
19,TACGAGCA,-0.175 ± 0.078
20,CAACACCA,0.37255 ± 7.8e-05
21,GGTGATGA,0.311 ± 0.0095
22,AAACACGC,0.1542 ± 0.0012
23,CAAGTAGG,0.0636 ± 0.007
24,GACCTCTA,-0.234 ± 0.033
25,GACGATCA,-0.115 ± 0.071

row,Sequence,PBM E-score of 8-mer
1,ACGTCGCG,0.182 ± 0.037
2,GTCATAAA,-0.00255 ± 0.054
3,GCTTTGGA,-0.0967 ± 0.038
4,AACATCGC,0.0569 ± 0.065
5,CAACTCCA,0.0927 ± 0.053
6,AATTGGAT,-0.0299 ± 0.013
7,ATTAAAAT,-0.126 ± 0.06
8,CTTATTCA,-0.0323 ± 0.066
9,TAATAAGA,-0.179 ± 0.015
10,CGGGACTC,-0.0785 ± 0.012
11,ATCCCTGG,-0.168 ± 0.072
12,AGAAATAT,0.00487 ± 0.067
13,AATAACTA,0.0245 ± 0.099
14,CGTCGAGA,-0.0352 ± 0.014
15,GACGTGGC,0.115 ± 0.014
16,CGGAGTAA,-0.0963 ± 0.081
17,CCATTAAG,-0.267 ± 0.012
18,AAAACATT,-0.106 ± 0.092
19,GCAATGAC,0.0858 ± 0.024
20,CGGTAGTC,-0.352 ± 0.046
21,TCCCACAA,-0.0771 ± 0.052
22,ATGCAAGA,-0.335 ± 0.026
23,GAAGTCTA,-0.215 ± 0.047
24,ACCAGGCG,0.189 ± 0.05
25,AGGATAAT,-0.0969 ± 0.042

row,Sequence,PBM E-score of 8-mer
1,AACATCTT,-0.183 ± 0.015
2,AGCATCGA,-0.0977 ± 0.0023
3,TGTGCGAA,0.458 ± 0.0092
4,GCACGGGA,-0.19 ± 0.044
5,GACCTTTA,-0.242 ± 0.0044
6,CTGCCCGC,-0.112 ± 0.11
7,CGGTTATA,-0.00559 ± 0.033
8,GAAGCGTA,-0.0732 ± 0.0097
9,ACTGAGGC,0.0776 ± 0.12
10,AATCTATC,-0.0426 ± 0.025
11,AACTGGAT,0.0369 ± 0.034
12,AATACTCC,-0.0546 ± 0.014
13,CAGTGCCC,-0.187 ± 0.014
14,CGTCGGGC,0.0868 ± 0.09
15,GAACTAAC,0.135 ± 0.023
16,CTTATCCC,-0.0931 ± 0.015
17,CCTTTCCA,-0.129 ± 0.034
18,GCCTCTAA,-0.0401 ± 0.018
19,CGATAACC,0.197 ± 0.017
20,GGTCAGAC,-0.274 ± 0.051
21,ATCCATCA,-0.143 ± 0.065
22,GGCGAGAC,0.18 ± 0.042
23,ATTTTGTC,0.0877 ± 0.0066
24,CAGTCGAA,-0.236 ± 0.075
25,AAGTTATT,-0.245 ± 0.016

row,Sequence,PBM E-score of 8-mer
1,ACGCTAAA,0.114 ± 0.0078
2,GGCCATCA,-0.148 ± 0.037
3,ACCTTCAT,0.2 ± 0.012
4,GATCTGAA,-0.123 ± 0.0013
5,ATAAAGTG,0.203 ± 0.0045
6,CCTAGGAA,-0.263 ± 0.033
7,GATGTCTA,-0.225 ± 0.0015
8,AATGGAAT,-0.316 ± 0.032
9,CCTTTACG,-0.21 ± 0.027
10,CTGAAGCC,-0.315 ± 0.046
11,CTGACTCA,0.0267 ± 0.052
12,CAGTACGC,-0.2006 ± 0.00062
13,CAATGTGG,0.0647 ± 0.085
14,ACTAGATA,-0.105 ± 0.0032
15,ATAGTTTC,-0.108 ± 0.012
16,AACGGCAT,-0.156 ± 0.018
17,ACAACAGT,0.141 ± 0.014
18,CAGATGAC,-0.0314 ± 0.026
19,ACTCAAAC,-0.162 ± 0.094
20,GACTTACC,-0.0974 ± 0.05
21,CTCAGCGC,0.047 ± 0.0037
22,GGGGGGTA,-0.28 ± 0.013
23,AACAATTG,0.248 ± 0.036
24,GGCCCCCA,-0.287 ± 0.099
25,CTACTAGC,0.00751 ± 0.031

row,Sequence,PBM E-score of 8-mer
1,ACGACCCC,-0.0644 ± 0.023
2,GATGCTGA,-0.105 ± 0.029
3,ACGGAAAG,-0.141 ± 0.019
4,GACGCTAC,0.152 ± 0.0046
5,CTTACCAA,-0.114 ± 0.011
6,CTATACCC,-0.116 ± 0.055
7,TGTCACAA,0.297 ± 0.024
8,ACTAACCT,-0.0493 ± 0.065
9,CGGACGAG,-0.251 ± 0.053
10,AATGAATA,-0.127 ± 0.03
11,GTACCGCA,-0.0877 ± 0.037
12,CCAACACG,0.232 ± 0.013
13,GCCTGTCC,-0.197 ± 0.0094
14,TCTTCACA,0.395 ± 0.015
15,CGCACAAC,0.185 ± 0.049
16,ATCTCCGA,-0.275 ± 0.016
17,ATGAAGCC,-0.199 ± 0.023
18,GTGATATA,0.16 ± 0.011
19,CACCTAGC,0.40555 ± 0.00015
20,ACTGAGTC,-0.0511 ± 0.064
21,GGCCGCGA,0.198 ± 0.12
22,AGGAATTG,-0.0973 ± 0.0076
